Values joined by “and” are separate entries in the source; they are usually repeats but may differ in a detail not shown here. Identical values can stand only once.
B1: EphA2 wild-type, full-length, labeled at the C-terminus with mTurquoise or eYFP (receptor)
chain: [not shown - about 500 residues]IGGVAVGVVLLLVLAGVGFFIHRRRKNQRARQSPEDVYFSKSEQLKPLKTYVDPHTYEDPNQAVLKFTTEIHPSCVTRQKVIGAGEFGEVYKGMLKTSSGKKEVPVAIKTLKAGYTEKQRVDFLGEAGIMGQFSHHNIIRLEGVISKYKPMMIITEYMENGALDKFLREKDGEFSVLQLVGMLRGIAAGMKYLANMNYVHRDLAARNILVNSNLVCKVSDFGLSRVLEDDPEATYTTSGGKIPIRWTAPEAISYRKFTSASDVWSFGIVMWEVMTYGERPYWELSNHEVMKAINDGFRLPTPMDCPSAIYQLMMQCWQQERARRPKFADIVSILDKLIRAPDSLKTLADFDPRVSIRLPSTSGSEGVPFRTVSEWLESIKMQQYTEHFMAAGYTAIEKVVQMTNDDIKRIGVRLPGHQKRIAYSLLGLKDQVNTVGIPI
B2: EphA2 G540I/G544I GZ mutant, full-length, labeled at the C-terminus with mTurquoise or eYFP (receptor)
chain: [not shown - about 500 residues]IGIVAVIVVLLLVLAGVGFFIHRRRKNQRARQSPEDVYFSKSEQLKPLKTYVDPHTYEDPNQAVLKFTTEIHPSCVTRQKVIGAGEFGEVYKGMLKTSSGKKEVPVAIKTLKAGYTEKQRVDFLGEAGIMGQFSHHNIIRLEGVISKYKPMMIITEYMENGALDKFLREKDGEFSVLQLVGMLRGIAAGMKYLANMNYVHRDLAARNILVNSNLVCKVSDFGLSRVLEDDPEATYTTSGGKIPIRWTAPEAISYRKFTSASDVWSFGIVMWEVMTYGERPYWELSNHEVMKAINDGFRLPTPMDCPSAIYQLMMQCWQQERARRPKFADIVSILDKLIRAPDSLKTLADFDPRVSIRLPSTSGSEGVPFRTVSEWLESIKMQQYTEHFMAAGYTAIEKVVQMTNDDIKRIGVRLPGHQKRIAYSLLGLKDQVNTVGIPI
B3: EphA2 G539I/A542I/G553I HR mutant, full-length, labeled at the C-terminus with mTurquoise or eYFP (receptor)
chain: [not shown - about 500 residues]IIGVIVGVVLLLVLAIVGFFIHRRRKNQRARQSPEDVYFSKSEQLKPLKTYVDPHTYEDPNQAVLKFTTEIHPSCVTRQKVIGAGEFGEVYKGMLKTSSGKKEVPVAIKTLKAGYTEKQRVDFLGEAGIMGQFSHHNIIRLEGVISKYKPMMIITEYMENGALDKFLREKDGEFSVLQLVGMLRGIAAGMKYLANMNYVHRDLAARNILVNSNLVCKVSDFGLSRVLEDDPEATYTTSGGKIPIRWTAPEAISYRKFTSASDVWSFGIVMWEVMTYGERPYWELSNHEVMKAINDGFRLPTPMDCPSAIYQLMMQCWQQERARRPKFADIVSILDKLIRAPDSLKTLADFDPRVSIRLPSTSGSEGVPFRTVSEWLESIKMQQYTEHFMAAGYTAIEKVVQMTNDDIKRIGVRLPGHQKRIAYSLLGLKDQVNTVGIPI

Target: the molecule itself
Test: fluorescence intensity fluctuations

Stoichiometry N, ≥ 2 and 2:
B1
B2
B3

Source: paper doi:10.1101/2022.06.06.495010 (bioRxiv, 2022)
